# Measurements: PubChem BioAssay AID1745853 (National Center for Advancing Translational Sciences (NCATS), 2022)
# The list shows a part of the results. These are further read-outs of the screen, such as a control signal, another cell line or another target. No call is given for them.
# Assays:
# Assay in all cases: Primary Screen for Target Class Profiling of Small Molecule Inhibitors of Methyltransferases
# [1] = molecular target: Glycine N-methyltransferase (Homo sapiens) (UniProt Q14749); conditions: purified enzyme, MTase-Glo SAH luminescence; measured here: GNMT inhibition; at 40 µM; stronger effect = lower value
# Procedure, shortened: (§1)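 Each enzyme was reacted with SAM and its substrate, with compounds tested once at 40 uM; SAH formed was read by MTase-Glo luminescence.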
# [2] = molecular target: Guanidinoacetate N-methyltransferase (Homo sapiens) (UniProt Q14353); conditions: purified enzyme, MTase-Glo SAH luminescence; measured here: GAMT inhibition; at 40 µM; stronger effect = lower value
# Procedure, shortened: as §1
# [3] = molecular target: Histamine N-methyltransferase (Homo sapiens) (UniProt P50135); conditions: purified enzyme, MTase-Glo SAH luminescence; measured here: HNMT inhibition; at 40 µM; stronger effect = lower value
# Procedure, shortened: as §1
# [4] = molecular target: Nicotinamide N-methyltransferase (Homo sapiens) (UniProt P40261); conditions: purified enzyme, MTase-Glo SAH luminescence; measured here: NNMT inhibition; at 40 µM; stronger effect = lower value
# Procedure, shortened: as §1
# [5] = molecular target: Phenylethanolamine N-methyltransferase (Homo sapiens) (UniProt P11086); conditions: purified enzyme, MTase-Glo SAH luminescence; measured here: PNMT inhibition; at 40 µM; stronger effect = lower value
# Procedure, shortened: as §1
# % is scaled to controls: 0 for no effect and ±100 for the full control effect.
Compound,"activity change, negative = inhibition [1] [%]","activity change, negative = inhibition [2] [%]","activity change, negative = inhibition [3] [%]","activity change, negative = inhibition [4] [%]","activity change, negative = inhibition [5] [%]"
C=CCC/C=C/C#CCCCCCCCC[C@H]1C(=O)O[C@H](C)[C@@H]1O,6.45,1.67,9.99,-14.4,-4.54
COc1cc(NS(=O)(=O)c2cc3c(cc2Cl)n(C)c(=O)n3C)cc(OC)c1,11,0,10.9,2.71,9.17
CCCn1c(=O)c2ccccc2n2c(SCC(=O)Nc3ccc(C(C)C)cc3)nnc12,-4.32,0.53,6.04,-10.4,3.45
C[C@@H]1CC[C@]2(C(=O)O)CC[C@]3(C)C(=CCC4[C@@]5(C)C[C@@H](O)[C@@H](O)C(C)(C)C5CC[C@]43C)C2[C@]1(C)O (stereo not given in full),0.031,-1.3,6.4,-11.1,-5.6
CCN(CC)CCNC(=O)CCCc1nnc2n3nc(-c4ccccc4)nc3c3ccccc3n12,-6.94,1.92,-62,6.7,-9.16
CC1CCC(NC(=O)C2(C)Cn3c(cc4sccc43)C(=O)N2Cc2ccccc2Cl)CC1 (stereo not given),-0.858,0,2.96,-2.28,0.057
Cc1cc(C(=O)N2CCC(OCCOc3ccc(F)cc3)CC2)nn1C,-2.06,-1.03,1.68,-4.34,-2.7
CC(C)CN1CCN(c2nc(CCN)nc3ccccc23)CC1CCO (stereo not given),-6.47,-8.58,-4.04,-17.5,-19.4
COc1ccccc1Oc1c(NS(=O)(=O)c2ccc(C)cn2)nc(-c2ccncc2)nc1OC,-9.11,1.8,6.76,-16.8,-4.23
Cc1ccc(CN2C(=O)c3ccc(-c4ccco4)n3CC2(C)C(=O)NC2CCC(C)CC2)cc1 (stereo not given),-1.23,0,1.85,-1.82,-3.05
COc1cc(=O)n2c(c1C(=O)NC1CCCCCC1)CCCC2,-0.371,3.09,2.81,1.22,6.84
O=C1NC2(Cc3ccccc31)CN([S+](=O)([O-])c1cccs1)C2,-7.01,-3.81,-3.08,-23.4,-10.1
CN1C(=O)c2cc3ccccc3n2CC1(C)C(=O)NCC(=O)NCc1ccccc1F (stereo not given),4.03,4.08,5.58,12.8,1.2
CC1(C(=O)NC2CCCCCC2)Cn2c(cc3occc32)C(=O)N1c1ccc(Cl)cc1 (stereo not given),-0.325,3.27,5.96,7.41,1.01
CC(C)Oc1ccc(CNC(=O)c2cc3n(n2)CC(C)(C(=O)NCc2ccc(F)cc2)N(C)C3=O)cc1 (stereo not given),-7.78,-5.37,-11.1,-6.77,-3.65
CC1(C(=O)NC2CCCCC2)Cn2c(ccc2-c2ccco2)C(=O)N1CCCc1ccccc1 (stereo not given),-15.5,-4.58,-4.99,-17.8,-3.04

Compound,"activity change, negative = inhibition [1] [%]","activity change, negative = inhibition [2] [%]","activity change, negative = inhibition [3] [%]","activity change, negative = inhibition [4] [%]","activity change, negative = inhibition [5] [%]"
O=C1CO[C@H]2CCN(Cc3ccccn3)CC[C@@H]2N1c1ccccc1,-4.42,0.697,-1.88,0.979,-3.21
O=C(O)c1cc(-c2ccncc2)cc(S(=O)(=O)N2CCCCCC2)c1,-7.12,-5.67,-2.79,-7.92,-1.36
CN1C(=O)c2cc(C(=O)NCc3ccc(Cl)cc3)nn2CC1(C)C(=O)NCc1ccccc1 (stereo not given),9.83,0,8.79,11.7,6.41
COc1ccc2cc3n(c2c1)CC(C)(C(=O)NC1CCCC1)N(Cc1ccco1)C3=O (stereo not given),-6.23,8.03,2.9,-3.65,-3.43
CN1CCc2c(c3ccccc3n2Cc2ccc(C(=O)NO)cc2)C1,-3.2,-15,-37,-24.7,-51.5
Cc1ccc(NC(=O)CSc2nnc3[nH]c(=O)c(C)nn23)c(C)c1,0.572,4.38,-3.88,-7.83,-5.76
CCn1c2c(c(=O)n1-c1ccccc1)CCN(C(=O)C1CCC1)C2,4.28,3.66,1.24,-2.63,-12.2
COC(=O)C1=COC(OC2OC(CO)C(O)C(O)C2O)C2C(C)C(OC(C)=O)C(OC(=O)c3ccccc3)C12 (stereo not given),2.38,2.05,9.37,-9.51,-2.35
Cc1cccc(NC(=O)Cn2nc3n(C(C)C)c(=O)c4ccc(C(=O)NC(C)C)cc4n3c2=O)c1,3.4,4.16,2.78,1.56,-1.24
CC1CCCN(C(=O)Cn2c(=O)oc3cc(S(=O)(=O)N4CC(C)CC(C)C4)ccc32)C1 (stereo not given),0.183,-7.22,3.16,-2.3,-10.5
CCc1cc2c(cc3n2CC(C)(C(=O)NC2CCCCCC2)N(Cc2ccccc2OC)C3=O)s1 (stereo not given),0.623,0,1.4,2.07,-2.64
CCc1noc([C@@H]2CC(F)(F)CN2C(=O)c2ccco2)n1,-0.222,2.52,1.25,0.343,-0.064
CCCC1c2ccc(C)n2CCN1C(=O)Nc1cc(Cl)c(OC)cc1OC (stereo not given),-3.02,2.01,-7.37,-2.92,-8.07
COCCOCCOc1ccc(C2=N[C@@](C)(C(=O)O)CS2)c(O)c1,1.27,-0.724,4.28,-7.42,2.65
O=C(c1c[nH]c(=O)[nH]1)N1CC[C@@H]2[C@@H](CCC(=O)N2CC2CCNCC2)C1,0.843,1.08,2.3,-1.04,0.888
